{"source": "PubChem BioAssay AID686978", "about": "(National Center for Advancing Translational Sciences (NCATS), 2013)", "note": "Screen size: about 420,000 compounds; about 64,000 (15%) were called active. This list was built around the results that the source calls inconclusive (neither active nor inactive); the mix of calls is not that of the screen. Calls follow the shape of the dose curve; as a rule, active = well fitted inhibition curve with a large enough effect; inconclusive = small, poorly fitted or top-dose-only effect; inactive = flat fitted curve, though single readings scatter. No potency is given beside an inconclusive call; the fits are too rough. % is scaled to controls: 0 for no effect and ±100 for the full control effect; potency is read from the fitted curve at half-maximal effect; tags tell the direction and shape of the fitted curve."}
{"test": "qHTS for Inhibitors of human tyrosyl-DNA phosphodiesterase 1 (TDP1): qHTS in cells in absence of CPT; also: nearly all actives have a fitted effect of over 55% in size", "conditions": "DT40 Tdp1-/- hTDP1 cells, no CPT, ATP luminescence, 48 h; activity change, negative = growth inhibition: at 46.2 µM (top of the series) unless noted", "outline": "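Luminescent ATP content (CellTiter-Glo) served as the growth readout. Knockout chicken DT40 cells expressing human TDP1 were exposed to compounds without camptothecin for a minimum 48 hr at 37 °C.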"}
{"compound": "COC(=O)c1[nH]c2ccc(C)cc2c1NC(=O)CN1CCN(c2ccccc2)CC1", "Potency": "active: 23.1 µM"}
{"compound": "CC(C)OCCCNc1sc(S(=O)(=O)c2ccccc2)nc1S(=O)(=O)c1ccc(Cl)cc1", "Potency": "active: 18.4 µM"}
{"compound": "O=C(NCc1ccco1)c1ccc(CS(=O)Cc2ccc(Cl)cc2)o1", "note": "(configuration not stated)", "activity change, negative = growth inhibition": "inactive: -3.56%"}
{"compound": "CN1C(=O)CSc2ccc(NC(=O)NCc3ccc(F)cc3)cc21", "Potency": "inconclusive [inhibitor, partial curve]"}
{"compound": "COc1ccccc1CCNC(=O)C(=O)NCC1OCCN1S(=O)(=O)c1ccc(C)cc1", "note": "(configuration not stated)", "Potency": "inconclusive [inhibitor, single point]"}
{"compound": "CCOC(=O)c1c(-c2ccc(C)o2)csc1NC(=S)NC(=O)c1cccs1", "Potency": "inconclusive [inhibitor, single point]"}
{"compound": "COC(=O)[C@]12CCCCC=C1N(Cc1cccc3ccccc13)C(=O)[C@H](CC(=O)NCc1cccc3ccccc13)C2", "Potency": "inconclusive [inhibitor, single point]"}
{"compound": "CCOc1ncccc1C(=O)N(CC)CC(=O)Nc1ccc(NC(C)=O)cc1", "activity change, negative = growth inhibition": "inactive: -13.9%"}
{"compound": "CCNC(=O)C1CCCN(Cc2ccc(C(=O)OCC)cc2)CC1", "note": "(configuration not stated)", "activity change, negative = growth inhibition": "inactive: -4.43%"}
{"compound": "COc1ccc(NC(=O)CSc2nccn2-c2ccccc2)cc1", "Potency": "inconclusive [inhibitor, single point]"}
{"compound": "COc1ccc2[nH]c(=O)c(CN(CC3CCCO3)C(=S)Nc3cccc(C)c3)cc2c1", "note": "(configuration not stated)", "Potency": "inconclusive [inhibitor, single point]"}
{"compound": "CCOC(=O)[C@H]1[C@H]2COc3ccc(OC)cc3[C@@H]2N2C(=O)c3ccc(Cl)cc3NC(=O)[C@@]12C", "Potency": "inconclusive [inhibitor, partial curve]"}
{"compound": "N#C/C(C(=O)N1CCCCC1)=C1/N=C(N)c2ccccc21", "activity change, negative = growth inhibition": "inactive: 2.83%"}
{"compound": "N#CC1=C(N)Oc2cc(N)ccc2C1c1ccc(F)cc1F", "note": "(configuration not stated)", "Potency": "inconclusive [inhibitor, single point]"}
{"compound": "Cc1ccccc1C(=O)Nc1ccccc1", "activity change, negative = growth inhibition": "inactive: 0.565%"}
{"compound": "O=C(CSc1cccc[n+]1[O-])NC(=O)c1ccc(OC(F)F)cc1", "activity change, negative = growth inhibition": "inactive: -6.2%"}
{"compound": "CCOc1ccc(N=c2cc(-c3ccc(OC)cc3)oc3ccccc23)cc1", "Potency": "active: 25.9 µM"}
{"compound": "CC(=O)N1CCN(C(=O)CCC(=O)O)CC1", "activity change, negative = growth inhibition": "inactive: -4.66%"}
{"compound": "O=c1c2ccccc2nnn1COc1ccc(Cl)cc1Br", "activity change, negative = growth inhibition": "inactive: -2.86%"}
{"compound": "FC(F)(F)c1cccc(CON=C2CCN(c3ncc(C(F)(F)F)cc3Cl)CC2)c1", "Potency": "inconclusive [inhibitor, single point]"}
{"compound": "COc1cc(S(=O)(=O)Nc2ccc(C)cc2)ccc1N=Cc1c(C)c(C#N)c(=O)n(C)c1O", "Potency": "active: 13 µM"}
{"compound": "CNC(=O)Nc1cc(C)nn1C", "Potency": "inconclusive [inhibitor, single point]"}
{"compound": "CCCOc1ccc(N2C(=O)CC(SC(=NCC)Nc3cccc(F)c3)C2=O)cc1", "note": "(configuration not stated)", "Potency": "inconclusive [inhibitor, single point]"}
{"compound": "COc1ccc(-c2cc(C(=O)NNC3=NCCC3)c3c(C)nn(-c4ccccc4)c3n2)cc1", "Potency": "inconclusive [inhibitor, single point]"}
{"compound": "CS(=O)(=O)c1nc(-c2ccc(F)cc2)cc(C(F)(F)F)n1", "Potency": "active: 1.84 µM"}
{"compound": "N#CC(c1ccc(O)cc1)c1ncc(C(F)(F)F)cc1Cl", "note": "(configuration not stated)", "activity change, negative = growth inhibition": "inactive: -16.5%"}
{"compound": "CN(N=O)c1ccc(C=C2C=Cc3ccccc32)cc1", "Potency": "inconclusive [inhibitor, partial curve]"}
{"compound": "COc1ccc(Nc2ncnc3scc(-c4ccc(OC)cc4)c23)cc1", "Potency": "active: 4.61 µM"}
{"compound": "CCC1=Nc2ccccc2-c2nnc(SC)nc2O1", "Potency": "inconclusive [inhibitor, single point]"}
{"compound": "CCc1cc(C(=O)NNC(=O)CCl)sc1C", "Potency": "inconclusive [inhibitor, single point]"}
{"compound": "COc1ccc(CCNC(=O)c2cnc3ccc(C)cn3c2=O)cc1OC", "Potency": "inconclusive [inhibitor, single point]"}
{"compound": "COc1ccc(NC(=O)CN(c2ccc(OC)cc2)S(=O)(=O)c2ccc(OC)c(OC)c2)cc1", "Potency": "inconclusive [inhibitor, single point]"}
{"compound": "CCOCCc1nn2c(=O)cc(CSCC(=O)Nc3cc(C)cc(C)c3)nc2s1", "activity change, negative = growth inhibition": "inactive: 0.524%"}
{"compound": "O=C(NC(=S)Nc1ccc2c(c1)OCCO2)c1ccccc1F", "activity change, negative = growth inhibition": "inactive: 7.4%"}
{"compound": "O=C(Nc1nnc(-c2ccc(Cl)cc2)o1)Nc1ccccc1Cl", "activity change, negative = growth inhibition": "inconclusive: -32.5% [inhibitor]"}
{"compound": "CCOC(=O)N1CCN(C2=C(NS(=O)(=O)c3ccc(Br)cc3)C(=O)c3ccccc3C2=O)CC1", "Potency": "active: 16.4 µM"}
{"compound": "CCN(C(=O)Cn1c(=O)oc2ccccc21)c1cccc(C)c1", "activity change, negative = growth inhibition": "inconclusive: -30.6% [inhibitor]"}
{"compound": "CC1CN=C(N(C(=S)Nc2ccccc2)c2cccc(C(F)(F)F)c2)S1", "note": "(configuration not stated)", "Potency": "inconclusive [inhibitor, single point]"}
{"compound": "CCn1c(=O)n(CC)c2cc(N3CCCC3)c(NC(=O)c3cccc(C)c3)cc21", "Potency": "active: 16.4 µM"}
{"compound": "COc1ccc(S(=O)(=O)NCCc2csc3nc(-c4ccc(Cl)cc4)nn23)cc1C", "Potency": "active: 13 µM"}
{"compound": "COc1ccc2[nH]c(=O)c(CN(C(=O)c3cccc(Cl)c3)c3ccccc3OC)cc2c1", "Potency": "inconclusive [inhibitor, single point]"}
{"compound": "COc1ccc(CCNC(=O)c2ccc(CS(=O)Cc3ccc(Cl)cc3)o2)cc1OC", "note": "(configuration not stated)", "Potency": "inconclusive [inhibitor, partial curve]"}
{"compound": "Cc1cccc(OCC(=O)Nc2nc3ccc([N+](=O)[O-])cc3s2)c1C", "Potency": "inconclusive [inhibitor, partial curve]"}
{"compound": "Cc1cccc(Cn2c(C)c(C)c3cc(C(=O)NCc4ccco4)ccc32)c1", "Potency": "active: 23.1 µM"}
{"compound": "CC1(C)C2CCC(CN=C(N)CSS(=O)(=O)O)C1C2", "note": "(configuration not stated)", "Potency": "inconclusive [inhibitor, single point]"}
{"compound": "Cc1noc(C)c1CSc1ccccc1C(=O)N(C)CC(=O)Nc1cccc(F)c1", "activity change, negative = growth inhibition": "inactive: -22%"}
{"compound": "O=S(=O)(c1ccccc1F)N1CCCc2ccccc21", "activity change, negative = growth inhibition": "inactive: -23.9%"}
{"compound": "CC(C)(C)[C@@H]1C=C(C(=O)O)[C@H](c2ccc(Cl)cc2)N1S(=O)(=O)c1ccccc1", "activity change, negative = growth inhibition": "inactive: 8.2%"}
{"compound": "COc1ccc(Oc2ncc3nc(-c4ccc(Cl)cc4)c(=O)n(C4CC4)c3n2)cc1", "activity change, negative = growth inhibition": "inactive: 15.8%"}
{"compound": "Cc1ccc(S(=O)(=O)N2CCCOC2CNC(=O)C(=O)NCCC2=CCCCC2)cc1", "note": "(configuration not stated)", "Potency": "inconclusive [inhibitor, partial curve]"}
{"compound": "Cc1ccc(C)c(NC(=O)c2cccc(Oc3ccc([N+](=O)[O-])cc3Cl)c2)c1", "Potency": "active: 16.4 µM"}
{"compound": "CC1CCCCC1N1CN=C(Nc2nc3ccccc3s2)NC1", "note": "(configuration not stated)", "Potency": "inconclusive [inhibitor, partial curve, poor fit]"}
{"compound": "O=[N+]([O-])c1cccc(N(CC2CO2)S(=O)(=O)c2ccccc2)c1", "note": "(configuration not stated)", "Potency": "inconclusive [inhibitor, single point]"}
{"compound": "Cc1ccc2c(CN(C)Cc3ccc(Cl)cc3)cc(=O)oc2c1", "Potency": "inconclusive [inhibitor, single point]"}
{"compound": "COc1ccc(-c2nc(Cn3c(SCc4cccc(Cl)c4)nc4ccncc43)c(C)o2)cc1", "Potency": "inconclusive [inhibitor, single point]"}
{"compound": "CCN(CC)C(=O)C1CCN(Cc2ccc(Br)cc2)CC1", "activity change, negative = growth inhibition": "inactive: -6.24%"}
{"compound": "CCOc1ccc(C(C)=O)cc1COc1cccnc1[N+](=O)[O-]", "Potency": "active: 6.51 µM"}
{"compound": "O=C(NC1CCc2ccccc21)c1cc(COc2ccc(F)cc2F)on1", "note": "(configuration not stated)", "Potency": "inconclusive [inhibitor, single point]"}
{"compound": "O=C(Nc1ccccc1Cl)c1cc(C2CCCCN2S(=O)(=O)c2ccccc2)on1", "note": "(configuration not stated)", "Potency": "inconclusive [inhibitor, single point]"}
{"compound": "Cc1ccc(C)c(N2CCN(C(=O)Cc3ccc(-n4c(=O)[nH]c5ccsc5c4=O)cc3)CC2)c1", "Potency": "inconclusive [inhibitor, single point]"}
{"compound": "O=C(CN1CCN(Cc2ccc(F)cc2Cl)S1(=O)=O)Nc1ccc(F)cc1", "Potency": "active: 14.6 µM"}
{"compound": "COC(=O)c1cccnc1-n1c(=O)c2cccnc2n(Cc2cccc(OC)c2)c1=O", "Potency": "inconclusive [inhibitor, single point]"}
{"compound": "Cc1ccc(C(c2sc3nc(-c4ccco4)nn3c2O)N2CCOCC2)cc1", "note": "(configuration not stated)", "activity change, negative = growth inhibition": "inactive: -2.41%"}
{"compound": "Cc1cccc(-n2c(-c3ccco3)nc3c(cnn3-c3ccccc3C)c2=O)c1", "Potency": "inconclusive [inhibitor, partial curve, poor fit]"}
{"compound": "Cc1ccc(C(=O)C(C)OC(=O)Cc2n[nH]c(=O)c3ccccc23)cc1", "note": "(configuration not stated)", "Potency": "active: 18.4 µM"}
{"compound": "CCN(CCCNC(=O)C1CCCN(S(=O)(=O)CC)C1)c1cccc(C)c1", "note": "(configuration not stated)", "Potency": "active: 14.6 µM"}
{"compound": "Cc1ccc(OCC(=O)Nc2cc(S(=O)(=O)N3CCOCC3)ccc2N2CCCC2)cc1", "Potency": "inconclusive [inhibitor, partial curve]"}
{"compound": "COC(=O)c1cc2c(cc1NC(=O)c1c(C)nn(-c3ccc(C)cc3)c1-n1cccc1)OCO2", "Potency": "inconclusive [inhibitor, single point]"}
{"compound": "COc1cc(NC(=O)Cn2ccn(Cc3ccccc3OC)c(=O)c2=O)cc(OC)c1", "activity change, negative = growth inhibition": "inactive: -7.98%"}
{"compound": "Cc1cc(OCC(=O)NC(C)C)ccc1Cl", "Potency": "inconclusive [inhibitor, single point]"}
{"compound": "CCOC(=O)c1c(S(=O)(=O)N2CCCC(C(=O)N(C)Cc3ccccc3)C2)c(C)n(C)c1C", "note": "(configuration not stated)", "Potency": "inconclusive [inhibitor, single point]"}
{"compound": "N#Cc1nc(COc2ccc(Cl)cc2)oc1N1CCN(Cc2ccccc2)CC1", "Potency": "inconclusive [inhibitor, single point]"}
